Laboratory results reported in paper PMC4559378.
Results are given in words; binding and its absence hold for the method and conditions named. For part of these data: In cells and extracts the contact can be indirect. Some binding calls cover weakened binding; strength is not graded here.

By UniProt entry, the sequences of proteins in these tests, tags left out. Where a name states a change or a piece, a line headed by the entry shows the natural chain unless it says otherwise. Chains listed by the source or under a name are the forms on record and can include a tag or linker. Residues count along the entry.
UniProt P35637: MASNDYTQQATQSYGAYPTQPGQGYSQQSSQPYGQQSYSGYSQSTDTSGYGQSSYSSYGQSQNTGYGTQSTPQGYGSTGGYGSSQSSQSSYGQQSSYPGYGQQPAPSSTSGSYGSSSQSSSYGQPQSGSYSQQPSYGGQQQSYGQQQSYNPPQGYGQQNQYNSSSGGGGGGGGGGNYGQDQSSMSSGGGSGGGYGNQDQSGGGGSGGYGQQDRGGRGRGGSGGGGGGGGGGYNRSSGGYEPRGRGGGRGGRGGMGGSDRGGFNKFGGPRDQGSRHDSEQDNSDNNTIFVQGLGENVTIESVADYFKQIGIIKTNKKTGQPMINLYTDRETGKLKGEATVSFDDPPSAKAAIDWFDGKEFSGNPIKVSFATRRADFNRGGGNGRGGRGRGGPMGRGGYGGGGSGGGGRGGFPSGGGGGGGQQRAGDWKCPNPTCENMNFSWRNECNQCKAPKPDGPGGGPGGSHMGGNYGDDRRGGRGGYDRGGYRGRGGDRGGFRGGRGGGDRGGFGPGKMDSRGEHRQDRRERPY
GST-tagged N-terminal fragment of Wt-FUS containing 370 amino acid residues: residues 1-370 of P35637
GST-tagged N-terminal fragment of Wt-FUS containing 285 amino acid residues: residues 1-285 of P35637
GST-tagged carboxyl terminal fragment (aa371-526) of FUS: residues 371-526 of P35637
UniProt P10809, residues 27-573: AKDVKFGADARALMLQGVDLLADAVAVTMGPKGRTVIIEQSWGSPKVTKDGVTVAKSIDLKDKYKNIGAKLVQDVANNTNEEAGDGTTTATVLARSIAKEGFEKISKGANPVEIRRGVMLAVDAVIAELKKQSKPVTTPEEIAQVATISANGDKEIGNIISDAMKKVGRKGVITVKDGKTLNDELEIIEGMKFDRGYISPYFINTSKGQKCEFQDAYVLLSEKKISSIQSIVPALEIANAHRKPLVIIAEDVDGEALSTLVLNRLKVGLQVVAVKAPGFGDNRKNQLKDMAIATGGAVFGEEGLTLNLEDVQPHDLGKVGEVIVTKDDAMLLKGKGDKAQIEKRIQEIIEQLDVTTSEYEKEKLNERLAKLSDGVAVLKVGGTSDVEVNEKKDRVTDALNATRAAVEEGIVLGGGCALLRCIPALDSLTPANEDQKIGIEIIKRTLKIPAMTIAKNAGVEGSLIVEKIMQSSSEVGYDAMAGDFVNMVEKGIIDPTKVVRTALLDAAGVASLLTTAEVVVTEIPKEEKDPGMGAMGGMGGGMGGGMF

Experiments:
[1] = molecular target: GST-tagged N-terminal fragment of Wt-FUS containing 285 amino acid residues (human) (UniProt P35637); test: pull-down; purified GST-FUS proteins incubated with purified HSP60-His in TNE buffer (10 mM Tris pH 8.0, 150 mM NaCl, 1 mM EDTA, 1% NP-40) on ice for 1 hour, then glutathione 4B Sepharose beads at 4°C for 3 hours; Western blot with anti-HSP60; also done after RNaseA treatment (50 ug/ml, 30 min, 37°C); both purified
[2] = molecular target: GST-tagged N-terminal fragment of Wt-FUS containing 370 amino acid residues (human) (UniProt P35637); test: as above
[3] = molecular target: GST-tagged carboxyl terminal fragment (aa371-526) of FUS (human) (UniProt P35637); test: as above
[4] = molecular target: GST-tagged full-length P525L-mutant FUS (human) (UniProt P35637); test: as above
[5] = molecular target: GST-tagged full-length Wt-FUS (human) (UniProt P35637); test: as above
[6] = molecular target: P525L-mutant FUS as a 6XHis-Myc tagged protein (human) (UniProt P35637); test: co-IP; cytosolic fraction of HEK293 cells expressing 6xMyc tagged FUS; immunoprecipitation with an anti-Myc monoclonal antibody; Western blot with anti-HSP60
[7] = molecular target: Wt-FUS tagged with 6xMyc tag (human) (UniProt P35637); test: as above
[8] = molecular target: P525L-mutant FUS as a 6XHis-Myc tagged protein (human) (UniProt P35637); test: co-IP; mitochondrial fraction of HEK293 cells expressing 6xMyc tagged FUS; immunoprecipitation with an anti-Myc monoclonal antibody; Western blot with anti-HSP60
[9] = molecular target: Wt-FUS tagged with 6xMyc tag (human) (UniProt P35637); test: as above
[10] = molecular target: P525L-mutant FUS tagged with GFP (human) (UniProt P35637); test: co-IP; lysates of transfected HEK293 (HEK293T) cells 48 h post-transfection; immunoprecipitation with anti-GFP and protein A-agarose at 4°C; Western blot with anti-HSP60
[11] = molecular target: Wt-FUS tagged with GFP (human) (UniProt P35637); test: as above
[12] = molecular target: P525L-mutant FUS as a 6XHis-Myc tagged protein (human) (UniProt P35637); test: cross-linking; live stable cells, 16 h tetracycline induction, 1% formaldehyde (PFA) for 10 min; FUS purified under denaturing conditions (6 M guanidine HCl) on Ni-NTA, then anti-myc immunoprecipitation and Ni-NTA again; Western blot with anti-HSP60, or anti-FUS after further anti-HSP60 immunoaffinity …

binding [1]	binding [2]	binding [3]	binding [4]	binding [5]	binding [6]	binding [7]	binding [8]	binding [9]	binding [10]	binding [11]	binding [12]	Substance
no binding	no binding	binds	binds	binds	–	–	–	–	–	–	–	His-tagged HSP60 protein (from UniProt P10809 27-573)
–	–	–	–	–	binds	binds	binds	binds	binds	binds	binds	HSP60, endogenous in HEK293 cells (from UniProt P10809 27-573)
